According to PubChem BioAssay AID686979 (National Center for Advancing Translational Sciences (NCATS), 2013):
Where “and” joins values, the source holds several entries; their conditions need not be identical. Equal entries are not always repeated. In all, about 420,000 compounds went through this assay and about 50,000 (12%) were called active. Inconclusive means that the source gave no clear call. Such entries were picked first, then a sample of the others. The call rests on the fitted dose curve; in most records, active means well fitted inhibition curve with a large enough effect; inconclusive means small, poorly fitted or top-dose-only effect; inactive means flat fitted curve, though single readings scatter. Where the call is inconclusive, the potency comes from a doubtful curve fit.

Experiment: qHTS for Inhibitors of human tyrosyl-DNA phosphodiesterase 1 (TDP1): qHTS in cells in presence of CPT; further: nearly all actives have a fitted effect of over 55% in size
Details: chicken DT40 Tdp1-/-;hTDP1 cells + 20 nM CPT, ATP luminescence, 48 h; activity change, negative = growth inhibition: at 46.2 µM (top of the series)
Outline: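 Chicken DT40 Tdp1-/- cells stably complemented with human TDP1 were seeded at 400 cells/well in medium containing 20 nM camptothecin, exposed to pin-transferred compounds, and grown at 37 °C for at least 48 hr. Viability was read as ATP luminescence.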
On the % scale 0 is the no-effect control and ±100 the full control effect; potency means the concentration at half of the fitted maximal effect; tags describe the fitted curve by direction and shape.

Row | SMILES | activity change, negative = growth inhibition | Potency
1 | COc1ccccc1-c1noc(CCCC(=O)NC2CCCCC2)n1 | inactive: -0.191% | –
2 | COCCSc1ccccc1C(=O)N1CCC(Cc2ccccc2)CC1 | – | inconclusive: 5.8 µM [inhibitor, full curve]
3 | CN1C(C(=O)N2CCc3ccccc3C2)=CC(c2ccc(F)cc2)=NS1(=O)=O | – | inconclusive: 29.1 µM [inhibitor, single point]
4 | O=C(Cc1ccc(Cl)cc1)Nc1ccc2oc(-c3ccccc3F)nc2c1 | – | inconclusive: 20.6 µM [inhibitor, partial curve]
5 | Cc1ccc(C)c(S(=O)(=O)N2CCCOC2CNC(=O)C(=O)NCCC2=CCCCC2)c1 (stereo not given) | – | inconclusive: 29.1 µM [inhibitor, single point]
6 | CCCN1C(=O)/C(=C2/C=Cc3ccccc3N2CC)SC1=S | – | inconclusive: 29.1 µM [inhibitor, single point]
7 | COc1cccc(C(=O)c2c[nH]c(C(=O)NCc3ccco3)c2)c1 | – | inconclusive: 18.4 µM [inhibitor, partial curve]
8 | C#CCOCCOCCOCCNc1nc(N2CCN(C(=O)[C@H](CCCCN)n3cc(CCCC)nn3)CC2)nc(N2CCN(C(=O)[C@H](CCCCN)n3cc(CCCC)nn3)CC2)n1 | inactive: 0.583% | –
9 | O=C(NC1CCCCCC1)C(=S)NCc1ccccc1 | inconclusive: -30.2% [inhibitor] | –
10 | COc1ccc(C2CC(=O)Oc3c2c(=O)n(C)c2ccccc32)c(OC)c1OC (stereo not given) | – | inactive and inconclusive: 25.9 µM [inhibitor, single point]
11 | Cc1cccc(C)c1C(O)c1ncc(-c2ccc(F)cc2)[nH]1 (stereo not given) | – | inconclusive: 6.51 µM [inhibitor, single point]
12 | CCCNS(=O)(=O)c1cccc(C(=O)OCc2cc(=O)oc3cc(OC)ccc23)c1 | – | active: 1.03 µM
13 | O=C(COc1ccccc1)Nc1ccc2nc(SCC(=O)N3CCCC3)sc2c1 | – | inconclusive: 20.6 µM [inhibitor, single point]
14 | O=C(NNC(=S)Nc1ccc(F)cc1)c1ccccc1OC(F)F | – | inconclusive: 32.6 µM [inhibitor, partial curve, poor fit]
15 | CCOC(=O)c1cc(C)sc1NC(=O)C(c1ccccc1)c1ccccc1 | – | inconclusive: 23.1 µM [inhibitor, single point]
16 | CCOC(=O)c1c(NC(=O)CSc2nnc3c(n2)[nH]c2ccccc23)sc2c1CCN(C)C2 | – | inconclusive: 23.1 µM [inhibitor, single point]
17 | O=c1nc(N(c2ccccc2)c2ccccc2)[nH]c(=O)[nH]1 | inactive: -17.9% | –
18 | Cc1ccccc1CC1(CO)CCCN(C(=O)c2ccccc2N(C)C)C1 (stereo not given) | – | inconclusive: 23.1 µM [inhibitor, partial curve]

Row | SMILES | activity change, negative = growth inhibition | Potency
19 | Cc1ccc(OCc2cc(C(=O)N3CCN(C4CCCC4)CC3)no2)cc1C | inactive: -24.5% | –
20 | Cn1c(CCN2CCCCCC2)nc2cc(NC(=O)Nc3ccccc3)ccc21 | – | inconclusive: 29.1 µM [inhibitor, single point]
21 | CCOC(=O)c1c(-c2ccccc2)oc2cc(Br)c(O)c(C=O)c12 | – | inconclusive: 18.4 µM [inhibitor, single point]
22 | CC(C)(C)NC(=O)c1ccc2c(c1)N(CC(=O)N1CCCCC1)C(=O)C(C)(C)O2 | inactive: 11.6% | –
23 | CCCCOC(=O)c1ccc(NC(=O)c2ccccc2OC)cc1 | – | active: 20.6 µM
24 | COc1ccc(OC)c2sc(N(CCCN(C)C)C(=O)c3ccco3)nc12 | – | inconclusive: 29.1 µM [inhibitor, single point]
25 | CC(=O)OC(C)C[N+](C)(C)C (stereo not given) | – | inconclusive: 0.461 µM [inhibitor, full curve, poor fit]
26 | O=S(=O)(c1ccc(=S)[nH]c1)N1CCOCC1 | – | inconclusive: 29.1 µM [inhibitor, single point]
27 | O=S(=O)(c1ccc(Br)s1)N1CCN(c2ncccn2)CC1 | – | inconclusive: 11.6 µM [inhibitor, partial curve]
28 | Cn1nc(-c2ccc(OCC(=O)NCC3CCCO3)cc2)c2ccccc2c1=O (stereo not given) | – | active: 18.4 µM
29 | Nc1nc2ccc(Cl)cc2cc1C(=O)NCCc1c[nH]c2ccccc12 | – | active: 8.2 µM
30 | N#C/C(=C/c1ccc(OCc2ccc(C(=O)O)cc2)cc1)C(=O)Nc1ccccc1 | inactive: -24.7% | –
31 | Cc1ccccc1NC(=O)Nc1ccccc1C(N)=O | – | active: 10.3 µM
32 | O=c1c2[nH]c3ccc(F)cc3c2ncn1CCN1CCOCC1 | – | inconclusive: 0.291 µM [inhibitor, full curve, poor fit]
33 | O=C(c1cc(-c2cccs2)nc2ccccc12)N1CCN(S(=O)(=O)c2cccc(F)c2)CC1 | inactive: -9.88% | –
34 | CCc1ccc(C2CC(=O)N(c3ccc(F)cc3)C3=C2C(=O)OC3)cc1 (stereo not given) | inactive: -6.87% | –
35 | CCOC(=O)CNc1nc(C(C)(C)C)nc2c1nnn2Cc1ccccc1Cl | – | inconclusive: 29.1 µM [inhibitor, single point]
